Screen size: about 310,000 compounds; about 14,000 (4.5%) showed an effect of 50% or more. The effect is printed as a negative number. The list shows a part of the results.
Target: human ether-à-go-go-related gene (hERG) potassium channel (human, UniProt Q12809)
Experiment: primary screen, population patch clamp on CHO cells stably expressing hERG
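Further: peak tail current of the secondary pulse compared with the same well before compound.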

Chain of human ether-à-go-go-related gene (hERG) potassium channel (Q12809 whole entry, looked up): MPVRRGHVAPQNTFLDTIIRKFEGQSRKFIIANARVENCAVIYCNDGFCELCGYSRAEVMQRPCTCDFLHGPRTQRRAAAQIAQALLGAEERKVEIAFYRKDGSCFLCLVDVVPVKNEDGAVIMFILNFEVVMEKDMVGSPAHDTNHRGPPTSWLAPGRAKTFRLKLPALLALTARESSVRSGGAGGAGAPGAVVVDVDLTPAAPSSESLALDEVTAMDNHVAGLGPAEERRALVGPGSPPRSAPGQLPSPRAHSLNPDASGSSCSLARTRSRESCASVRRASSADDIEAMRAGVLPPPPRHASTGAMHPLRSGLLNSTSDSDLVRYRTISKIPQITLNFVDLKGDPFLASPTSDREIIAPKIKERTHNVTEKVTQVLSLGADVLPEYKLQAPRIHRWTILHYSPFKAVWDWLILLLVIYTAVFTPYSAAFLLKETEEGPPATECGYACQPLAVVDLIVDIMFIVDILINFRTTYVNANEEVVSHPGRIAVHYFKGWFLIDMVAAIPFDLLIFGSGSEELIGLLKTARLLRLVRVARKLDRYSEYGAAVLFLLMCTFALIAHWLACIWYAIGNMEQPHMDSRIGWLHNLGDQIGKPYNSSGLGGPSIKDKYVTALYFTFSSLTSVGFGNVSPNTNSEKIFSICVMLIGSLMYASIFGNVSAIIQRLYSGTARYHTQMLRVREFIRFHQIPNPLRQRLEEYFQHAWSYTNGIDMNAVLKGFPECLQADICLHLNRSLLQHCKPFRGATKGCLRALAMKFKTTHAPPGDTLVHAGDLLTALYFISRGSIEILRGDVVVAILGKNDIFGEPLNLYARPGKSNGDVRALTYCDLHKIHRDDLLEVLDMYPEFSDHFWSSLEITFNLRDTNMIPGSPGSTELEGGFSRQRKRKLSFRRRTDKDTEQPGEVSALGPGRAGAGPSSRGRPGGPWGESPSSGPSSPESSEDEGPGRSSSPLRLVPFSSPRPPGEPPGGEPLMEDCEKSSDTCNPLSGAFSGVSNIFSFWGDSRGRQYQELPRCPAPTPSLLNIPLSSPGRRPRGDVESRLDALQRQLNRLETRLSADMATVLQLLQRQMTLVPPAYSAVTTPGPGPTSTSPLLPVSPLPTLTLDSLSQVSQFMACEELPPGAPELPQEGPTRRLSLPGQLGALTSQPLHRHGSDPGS

SMILES	hERG current change (%, negative = inhibition) at 10uM [%]
COc1ccccc1N1CCN(C(c2cccs2)C(C)NC(=O)C(=O)N2CCCCC2)CC1 (stereo not shown)	-3.38
COc1ccc(C(=O)/C=C/c2ccsc2)cc1CSCC(=O)O	10.7
COc1ccc(CN2CCNC(=O)C2CC(=O)N(C)CCCN2CCOCC2)cc1C (stereo not shown)	11.9
NS(=O)(=O)c1ccc(NC(=O)COC(=O)COc2ccc(Cl)cc2)cc1	15.9
Cc1ccc(NC(=O)c2c(C(=O)Nc3ccccc3)sc3nc(C)cc(=O)n23)cc1	42.2
COCCNC(=O)[C@H]1N2C(=O)c3c(ccc(OC)c3OC)C2SC1(C)C (stereo partly shown)	12.9
O=C(NCCc1ccccc1)C1CC(=O)N(CCc2ccccc2)C1 (stereo not shown)	6.57
Cc1ccc(/C=N/NC(=O)Cn2cnc3ccccc32)cc1	14.4
CCC(C)NS(=O)(=O)c1cccs1 (stereo not shown)	7.86
COc1ccc(S(=O)(=O)N2CCC(NC(=O)c3cccnc3)CC2)cc1	-64.7
C/C(=N/NS(=O)(=O)c1ccc(C)cc1C)c1ccc2c(c1)OCO2	-2.58
O=C(COC(=O)CC1CCCC1)Nc1ccccc1[N+](=O)[O-]	4
CC1CN/C(=C\C(=O)c2ccc(Cl)cc2)C(=O)N1 (stereo not shown)	-17.8
Cc1ccnc2nc(C(=O)Nc3ccc4c(c3)OCO4)nn12	-2.98
O=C(CN1C(=O)NC2(CCCC2)C1=O)Oc1ccc2ccc(=O)oc2c1	7.71
CCOC(=O)C1CCN(C(=O)N2CCOCC2)CC1	0.666
COc1cc(C(C[N+](=O)[O-])c2c(C)cc3ccccn23)ccc1O (stereo not shown)	6.21
COc1cc(NC(=O)COC(=O)C2CC2)c(C)cc1[N+](=O)[O-]	1.13
CN(C)P(=O)(CCl)Nc1ccccc1 (stereo not shown)	12.9
COC(=O)CSc1nnc(-c2cccnc2)n1-c1cccc(OC)c1	0.897
Cc1ccc(N2C(=O)C3C4C=CC(C4)C3C2=O)cc1 (stereo not shown)	3.12
CCc1ccc(S(=O)(=O)N2CCN(c3ccccc3OC)CC2)cc1	6.8
COC(=O)C1=C(C(=O)OC)[C@@H]2N(Cc3ccccc3)c3ccccc3[C@@]23C[C@@H](CO)N(C(=O)NC2CCCC2)C3=N1	-9.18
O=C(NCc1ccccc1)C1CCN(S(=O)(=O)N2CCCCCC2)CC1	-11
N#CCCc1cccc(CCC#N)c1	3.45
